Measurements: article PMC4336329 (PLoS ONE, 2015)
Out of some 310,000 compounds screened, about 14,000 (4.5%) showed an effect of 50% or more. Effects have a minus sign here. Some of the results follow.

target: human ether-à-go-go-related gene (hERG) potassium channel (human, UniProt Q12809); assay: primary screen, population patch clamp on CHO cells stably expressing hERG
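Note: peak tail current of the secondary pulse compared with the same well before compound.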

Sequence of human ether-à-go-go-related gene (hERG) potassium channel (Q12809 whole entry, looked up): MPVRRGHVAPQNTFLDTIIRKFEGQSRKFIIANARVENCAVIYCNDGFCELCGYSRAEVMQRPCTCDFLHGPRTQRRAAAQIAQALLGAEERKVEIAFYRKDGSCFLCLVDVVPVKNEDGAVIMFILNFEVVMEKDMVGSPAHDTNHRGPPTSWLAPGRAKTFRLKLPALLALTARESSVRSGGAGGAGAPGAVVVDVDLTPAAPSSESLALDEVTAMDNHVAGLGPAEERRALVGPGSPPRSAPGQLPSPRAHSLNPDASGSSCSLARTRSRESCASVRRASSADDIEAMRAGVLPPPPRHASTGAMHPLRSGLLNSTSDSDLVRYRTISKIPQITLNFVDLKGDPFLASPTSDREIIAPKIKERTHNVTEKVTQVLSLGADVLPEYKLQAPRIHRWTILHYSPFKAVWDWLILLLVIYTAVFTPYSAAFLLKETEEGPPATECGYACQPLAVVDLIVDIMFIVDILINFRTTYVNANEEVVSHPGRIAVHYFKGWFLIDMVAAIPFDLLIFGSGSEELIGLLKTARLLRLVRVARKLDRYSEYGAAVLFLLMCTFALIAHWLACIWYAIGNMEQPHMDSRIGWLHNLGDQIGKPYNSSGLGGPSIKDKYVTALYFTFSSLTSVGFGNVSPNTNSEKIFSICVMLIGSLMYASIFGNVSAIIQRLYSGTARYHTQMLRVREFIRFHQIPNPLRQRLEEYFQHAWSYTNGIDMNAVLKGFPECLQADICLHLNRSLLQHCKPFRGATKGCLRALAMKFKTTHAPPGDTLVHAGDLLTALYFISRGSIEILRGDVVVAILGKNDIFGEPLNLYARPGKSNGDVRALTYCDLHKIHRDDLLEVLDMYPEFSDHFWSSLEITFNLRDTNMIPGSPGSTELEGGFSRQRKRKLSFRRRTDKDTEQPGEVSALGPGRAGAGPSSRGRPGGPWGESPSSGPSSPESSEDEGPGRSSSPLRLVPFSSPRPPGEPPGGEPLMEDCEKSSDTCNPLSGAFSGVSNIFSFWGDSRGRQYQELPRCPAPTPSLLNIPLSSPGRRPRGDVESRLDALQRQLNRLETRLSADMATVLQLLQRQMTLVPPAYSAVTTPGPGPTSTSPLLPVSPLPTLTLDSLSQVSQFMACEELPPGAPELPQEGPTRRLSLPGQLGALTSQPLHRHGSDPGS

| SMILES | hERG current change (%, negative = inhibition) at 10uM |
| --- | --- |
| CC1(c2ccc3ccccc3c2)NC(=O)N(CC(=O)Nc2ncccc2O)C1=O (stereo not drawn) | 3.73% |
| Cc1cccc(CC(=O)Nc2cc(=O)n(C)c(=O)n2C)c1 | 3.82% |
| CCN(CC(=O)Nc1ccc(NC(C)=O)cc1)C(=O)c1ccc(COc2ccccc2)o1 | 11.7% |
| COC(=O)c1ccccc1NC(=O)NC1CCC(C)CC1 (stereo not drawn) | -19.3% |
| COc1cccc(N2CCN(C(=O)c3c(C)nn(-c4ccccc4)c3C)CC2)c1 | 5.19% |
| COc1ccc(NC(=O)C(=O)c2cn(CC(=O)N3CCCC3)c3ccccc23)cc1 | 6.79% |
| CCN1CCN(c2ccc(S(=O)(=O)N3CCOCC3)cc2NC(=O)/C=C/c2ccc(OC)cc2OC)CC1 | -17.2% |
| CCCCn1c(N)c(N(CCOC)C(=O)CSc2n[nH]c(-c3ccc(C)cc3)n2)c(=O)[nH]c1=O | -5.32% |
| O=C(CCn1c(=O)sc2ccccc21)Nc1cccnc1 | -15.2% |
| COc1cccc2c1C(=O)C[C@]1(CCCC[C@@H]1C)O2 | -15.1% |
| O=C(Nc1c2c(nn1-c1ccc(Cl)cc1)CS(=O)(=O)C2)C1CC1 | -26.8% |
| O=S(=O)(Nc1ccc(N2CCOCC2)cc1)c1ccc(F)cc1 | 4.3% |
| N/C(=N\OC(=O)Nc1ccccc1)c1ncc(C(F)(F)F)cc1Cl | 10.3% |
| Cc1nn(C)c(Oc2cccc(Cl)c2)c1C(=O)Nc1ccc(F)cc1F | -5.84% |
| Cc1nnc(NC(=O)c2ccc3ccccc3n2)s1 | 11.8% |
| Fc1ccc(C(CCNCc2ccccn2)c2ccc(Cl)cc2)cc1 (stereo not drawn) | -77.5% |
| COCCN(Cc1cn(C)nc1-c1ccccc1F)C(C)C | 15.5% |
| COc1ccccc1NS(=O)(=O)c1cccc(N=C2N=C(N)c3ccccc32)c1 | 11.7% |
| COc1cccc(OCCCCCCN2CCOCC2)c1 | -8.21% |
| O=C(Nc1ccc(O)c(-c2nc3ccccc3o2)c1)C1(c2ccc([N+](=O)[O-])cc2)CCCC1 | 0.668% |
| Cl.Fc1cccc(Cl)c1CNCc1ccccc1Cl | -18.4% |
| COc1cc(NS(=O)(=O)c2c(C)[nH]c(C)c2C(=O)N2CCCCC2)cc(OC)c1OC | 5.18% |
| Cc1ccc(NS(=O)(=O)c2ccc3c(c2)oc(=O)n3C)cc1C | 1.18% |

| SMILES | hERG current change (%, negative = inhibition) at 10uM |
| --- | --- |
| O=C(N/N=C/c1ccccc1[N+](=O)[O-])c1ccc2c(c1)OCCO2 | 12.8% |
| CCOc1cc(NC(=S)NC)c(OCC)cc1NC(=O)c1ccco1 | -2.08% |
| CC(Sc1nnc(-c2cccnc2)n1-c1ccccc1F)C(=O)N1CCCc2ccccc21 (stereo not drawn) | -22.8% |
| Cc1ccccc1NC(=O)CN1CCC(n2nnc3ccccc32)CC1 | -38.8% |
| CC(C)(C)c1ccc(NC(=O)COC(=O)c2ccc([N+](=O)[O-])s2)cc1 | 0.947% |
| O=S(=O)(Nc1ccc(N=Nc2ccccc2)cc1)c1ccccc1 | 1.45% |
| CC(c1nc2ccccc2c(=O)[nH]1)N(C)c1ccc2ccccc2c1 (stereo not drawn) | -7.73% |
| CC(Oc1ccccc1)C(=O)N1CCN(c2ncccn2)CC1 (stereo not drawn) | 3.58% |
| CCN1C(=O)N[C@@H](c2cccs2)C(C(=O)OC)=C1C | 10.2% |
| COC(=O)/C=C1\SC(=NC(=O)c2cccc(Cl)c2)NC1=O | -79.5% |
| CCn1c(-c2ccc3[nH]c(C)c(C)c3c2)n[nH]c1=S | 25% |
| OCC(O)CSc1nc(-c2ccccc2)nc2c1CCC2 (stereo not drawn) | 2.22% |
| COc1ccc(C2C(C#N)=C3NC(=O)c4c(sc5c4CCCCC5)N3C3=C2C(=O)CC(C)(C)C3)cc1 (stereo not drawn) | 5.83% |
| O=C(C1CCC1)N1CCN(S(=O)(=O)c2cccc(F)c2)CC1 | -10.5% |
| Cn1nnnc1SCC(=O)Nc1ncc(Cl)cc1Cl | -10.3% |
| CCc1nnc(NC(=O)CN2CCN(c3cccc(OC)c3)CC2)s1 | -5.75% |
| Cc1cc(C)n(CCOc2ccc(Br)cc2)n1 | 1.08% |
| Cc1cc(C)c(-c2csc(NC(=O)c3cc([N+](=O)[O-])ccc3N3CCOCC3)n2)c(C)c1 | 7.97% |
| O=C(c1ccc(-c2ccccc2Cl)o1)N1CCCC(C(F)(F)F)C1 (stereo not drawn) | 2.73% |
| CCN1CCN(C(=O)C2CCN(c3nnc(C)c4c(C)n(-c5ccc(C)cc5)nc34)CC2)CC1 | 3.86% |
| COc1ccc2c(c1)c(=O)c(C(=O)c1ccccc1)cn2Cc1ccc(C)cc1 | -75% |
| CC(C)C1CC(C(F)(F)F)n2nc(C(=O)O)cc2N1 (stereo not drawn) | 13.4% |
| Cc1ccc2cc(C(c3nnnn3C3CCCC3)N(Cc3ccccc3)Cc3ccco3)c(=O)[nH]c2c1 (stereo not drawn) | 10.7% |

| SMILES | hERG current change (%, negative = inhibition) at 10uM |
| --- | --- |
| CC1(c2ccc(Cl)cc2)NC(=O)N(CC(=O)c2ccc3c(c2)OCO3)C1=O (stereo not drawn) | 4.42% |
| O=C(NCc1ccco1)c1ccc(=O)[nH]n1 | 17.8% |
| C=CCc1ccccc1OCC(O)CN1CCN(c2ccccc2F)CC1.Cl (stereo not drawn) | -40.9% |
| CCn1c(CCNC(=O)c2cccs2)nnc1SCC(=O)Nc1ccc(Cl)cc1 | -49.7% |
| Cc1ccc(CN2CCN(/N=C/c3ccccc3)CC2)cc1 | -12.7% |
| O=C(N/N=C/c1coc2ccc(Cl)cc2c1=O)c1ccc(O)cc1 | 19.3% |
| Cc1cccc(NC(=O)CSc2nnc(-c3ccco3)o2)c1 | 3.61% |
| CCN1CCSc2ccc(C(=O)NCc3ccc(OC(C)C)cc3)cc21 | -0.114% |
| CCOC(=O)Cn1nc(-c2ccc(Cl)cc2)cc1N | -8.3% |
| O=S(=O)(Nc1ccccn1)c1cccs1 | 19.2% |
| Cn1c(O)c(C=Nc2ccc(Cl)cc2)c(=O)n(C)c1=O | -8.57% |
| Cc1cc(C)c(NC(=O)COC(=O)CCn2c(C)csc2=O)c(C)c1 | -10.6% |
| O=C(NCc1cccs1)c1cccnc1SCCS(=O)(=O)c1ccc(C(F)(F)F)cn1 | -1.44% |
| CCN(CC)CCN(Cc1cc2ccc(C)cc2[nH]c1=O)C(=O)NC1CCCCC1 | -73.1% |
| Cc1nc(N2CCC(C)CC2)c(C#N)c(C)c1[N+](=O)[O-] | -10.8% |
| COc1ccc(C(=O)N2CCn3c2nc2ccccc23)cc1 | -14.1% |
| CCNc1nc(NC(C)C)nc(Oc2ccc(OCCOc3ccccc3)nn2)n1 | -25.5% |
| S=C(Nc1ccccc1)N1N=CCC1c1ccccc1 (stereo not drawn) | -18.9% |
| CCCn1cc(CN2CCC(Cc3cccc(F)c3)(C(=O)OCC)CC2)c(C)n1 | -67.2% |
| CCSc1nnc(-c2ccncc2)o1 | 34.1% |
| CC(C)NC(=O)COC(=O)c1cc(F)c(F)cc1Cl | 25.2% |
| NNC(=O)c1cc(O)c(O)c(O)c1 | 20.8% |
| O=C(CCCC1=NS(=O)(=O)c2ccccc2N1)N1CCN(c2ccc(Cl)cc2)CC1 | -61.1% |

| SMILES | hERG current change (%, negative = inhibition) at 10uM |
| --- | --- |
| O=C(O)/C=C/C(=O)NNC(=O)c1ccc(Br)cc1 | 3.76% |
| O=c1oc(-c2ccccc2)nc2sc3c(c12)CCC3 | 0.375% |
| C=CCNC(=O)C1CCN(S(=O)(=O)c2ccccc2)CC1 | -2.98% |
| CCOC(=O)Cc1csc(NC(=O)CSc2nnnn2-c2ccc(F)cc2)n1 | -12% |
| O=C(O)C1CCCCN1C(=O)c1ccc(S(=O)(=O)N2CCCCCC2)cc1 (stereo not drawn) | 14.4% |
| COc1ccc(C(=O)O)cc1S(=O)(=O)N(C)CCc1ccccn1 | 29.5% |
| Cc1ccccc1-c1nc(CN2CCSCC2)c(C)o1 | -6.39% |
| COc1ccc(/C=C/C(=O)c2nc3ccccc3n2CC(=O)c2ccc(OC)cc2)cc1 | -0.153% |
| CCCCc1ccc(-c2nc(-c3ccncc3)no2)cc1 | 16% |
| Cc1c(Cl)cccc1NC(=S)NCc1ccc(F)cc1 | 7.42% |
| CSc1ccccc1OCc1cc(C(=O)N(C)CCn2nc(C)cc2C)no1 | -3.8% |
| CN(CC(=O)Nc1ccccc1Br)C(=O)c1cc(Cl)nc2ccccc12 | -20.1% |
| S=C(Nc1cccc(Br)c1)c1ccccc1 | -21.7% |
| CCOCCCNC(=O)c1ccccc1OC1CCN(S(C)(=O)=O)CC1 | 15.5% |
| CCCN(Cc1cc(=O)[nH]c2ccccc12)C(=O)CC | 18.5% |
| O=c1oc2ccccc2c(N2CCCC2)c1[N+](=O)[O-] | 14.5% |
| CCC(=O)N1CCN(c2ccccc2NC(=O)COc2cccc(C)c2)CC1 | -38.2% |
| Br.Cc1ccc(C(=O)Cn2c(NCCO)nc3ccccc32)cc1 | -8.18% |
| Cc1ccc(-c2nnc(SCC(=O)N/N=C/c3cccs3)n2-c2ccc(C)cc2)cc1 | 4.75% |
| COc1ccc(OCCC(=O)N2CCOCC2)cc1 | 7.32% |
| COc1ccc2c(c1)OC[C@H]1[C@H]2N2C(=O)[C@H](C)NC(=O)[C@@]2(C)[C@H]1c1ccccc1 | 14% |
